Results as given in the supplement of paper PMC11383711.
This is one part of the list. Binding of human antibodies (heavy:light variable regions, tested as scFv in one mRNA-display pool) to influenza hemagglutinin, with or without the stem antibody CR9114 bound first. Score = (mean enrichment − median) / interquartile range of that screen; higher = more enriched, 0 = typical non-binder. Active = above the paper's cut-off per screen: stems 28; unblocked H1 Solomon Islands 5, H1 Michigan 3, H3 5, H5 19, H7 2.85, both B 5; blocked 9, 7, H5 10, H7 10, B Phuket 10, B Lee 11.5. Scores are scaled within each screen and are no affinities; replicates correlate at about 0.6 to 0.9, and antibodies rare in the pool are noisier.

What was measured:
Assay in all cases: mRNA display binding score; higher = more enriched on the antigen
[1] = molecular target: Influenza A H1N1 A/Michigan/45/2015 hemagglutinin ectodomain
Experimental: (§1)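 A pool of natively paired antibodies, displayed as scFv on mRNA, was selected once on antigen-coated beads and sequenced before and after; two replicates.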

[2] = molecular target: Influenza A H1N1 A/Solomon Islands/3/2006 hemagglutinin ectodomain
Experimental: as §1

[3] = molecular target: Influenza A H3N2 A/Singapore/INFIMH-16-0019/2016 hemagglutinin ectodomain; conditions: antigen blocked with: nothing
Experimental: as §1

[4] = molecular target: Influenza A H5N1 A/Qinghai/1A/2005 hemagglutinin ectodomain
Experimental: as §1

[5] = molecular target: Influenza A H7N9 A/Shanghai/2/2013 hemagglutinin ectodomain
Experimental: as §1

[6] = molecular target: Influenza B/Lee/1940 hemagglutinin ectodomain
Experimental: as §1

[7] = molecular target: Influenza B/Phuket/3073/2013 hemagglutinin ectodomain
Experimental: as §1

[8] = antigen blocked with: 2 µM CR9114 IgG

Measured: mRNA display binding score

B1: W85-1H07 (protein)
chain 1: EVQLVESGGGLVKPGGSLRLSCAASGFHFSGYSMNWVRQAPGKGLEWVASISGSVSDIHYADSVKGRFTISRDNARNSLYLQMTSLRAEDTALYYCVRDSYNWNDREFDPWGQGTLVTVSS
chain 2: DIQMTQSPSSLSASVGDRVTFSCRASQSISIYLNWYQQKPGKAPKLLIYAASSLQTGVPSRFSGSGSGTDFTLSISSLQLEDFATYYCQQSYTTPPTFGQGTKVEVK
active: [6]; antigen blocked with: nothing 46.3
inactive: [1]; [8] 0.357 | [1]; antigen blocked with: nothing 0.335 | [2]; [8] 1.38 | [2]; antigen blocked with: nothing 0.107 | [3] 0.74 | [4]; [8] -0.159 | [4]; antigen blocked with: nothing 0.426 | [5]; [8] 0.518 | [5]; antigen blocked with: nothing 0.868 | [6]; [8] 7.86 | [7]; [8] 0.221 | [7]; antigen blocked with: nothing -0.0266

B2: W85-2C10 (protein)
chain 1: EVQLVESGGGVVQPGRSLRLSCAASGSTFSDRAMHWVRQAPGRGMEWIGFILFHGTNNYHADSVKGRFTISRDNSKNTLYLQMNSLRTEDTAMYYCARDRGAAVVDLTAEAFDLWGQGTMVTVSS
chain 2: DIQMTQSPSSLSASVGDRVTITCRASQGIRNWLAWYQQKPGKAPRSLIYAASTLQSGVPSRFIGSGSGTDFTLTIRGLQPEDFATYFCQQYDSYPLTFGGGTKVEI
active: [6]; [8] 48.1 | [6]; antigen blocked with: nothing 172
inactive: [1]; [8] 1.46 | [1]; antigen blocked with: nothing 0.974 | [2]; [8] 1.36 | [2]; antigen blocked with: nothing 0.123 | [3] 1.3 | [4]; [8] 0.249 | [4]; antigen blocked with: nothing 1.35 | [5]; [8] 0.638 | [5]; antigen blocked with: nothing 0.943 | [7]; [8] 0.929 | [7]; antigen blocked with: nothing -0.027

B3: AG13-3E04 (protein)
chain 1: VQLLESGGGLVQPGGSLRLSCTASGFTFNNYAMNWVRQAPGKGLEWVSSLSGGGRNIYYADSVKGRFTISRDNFKNTVYLQMNSLRAEDTAIYYCAKPAPMMVVVKNWFDTWGQGTLVTVSS
chain 2: EIVMTQSPATLSVSPGERATLSCRASQSVSANLAWYQQKPGQTPRLLIYDASTRATGIPARFSGSGSGTHFTLTISSLQSEDFAIYYCQQYKDWPPWTFGQGTKVEIK
inactive: [1]; [8] 0.0616 | [1]; antigen blocked with: nothing 0.596 | [2]; [8] -0.214 | [2]; antigen blocked with: nothing 0.415 | [3] 0.354 | [4]; [8] -0.139 | [4]; antigen blocked with: nothing -0.06 | [5]; [8] 0.00618 | [5]; antigen blocked with: nothing 1.07 | [6]; [8] 0.508 | [6]; antigen blocked with: nothing -0.165 | [7]; [8] -0.0991 | [7]; antigen blocked with: nothing 0.0989

B4: antibody 1F04 (protein)
chain 1: VQLLESGGGLVQPGGSLRLSCAASGLTFSNYAMSWVRQAPGKGLEWVSVIYSSGSGTWYADSVKGRFTISRDNSKNTLYLQMISLRAEDTAVYYCAKDRIAGSWVDAFDMWGQGTMVTVSS
chain 2: DIQMTQSPSSLSASVGDRVTVTCQASQDFSNSLNWYQQKPGKAPKLLIYGASNLETGVPSRFSGSGSGTHYTFTINSLQPEDIATYYCQQFKAFGQGTKVEIK
inactive: [1]; [8] 1.77 | [1]; antigen blocked with: nothing -0.0849 | [3] -0.27 | [4]; [8] 0.585 | [4]; antigen blocked with: nothing 0.297 | [5]; [8] 0.441 | [5]; antigen blocked with: nothing -0.173 | [6]; [8] -0.416 | [6]; antigen blocked with: nothing -0.0415 | [7]; [8] 1.03 | [7]; antigen blocked with: nothing 0.62
active: [2]; [8] 133 | [2]; antigen blocked with: nothing 111

B5: K77-2D08 (protein)
chain 1: EVQLVESGGGVVQPGGSLRLSCAASGFSFSSHDMHWVRQAPGKGLEWVAFIRYDGSNEYYADSAEGRFAVSRDNSKNTLSLQLNSLRSDDTAVYYCANAADEWGGGLQHDYWGPGTLVIVSS
chain 2: QSALTQPASVSGSPGQSITISCTGGSFDVGGYNYISWYQQHPGKAPRLIIYGVTKRPSGVSTRFSASKSGATASLTISGLQAEDEAEYHCSSYTASTTWVFGGGTKLTV
active: [2]; antigen blocked with: nothing 7.33 | [6]; antigen blocked with: nothing 6.92 | [7]; antigen blocked with: nothing 5.86
inactive: [1]; [8] 3.92 | [1]; antigen blocked with: nothing 1.79 | [2]; [8] 2.71 | [3] 2.11 | [4]; [8] 2.51 | [4]; antigen blocked with: nothing 3.35 | [5]; [8] 1.24 | [5]; antigen blocked with: nothing 2.83 | [6]; [8] 1.16 | [7]; [8] 2.86

B6: R95-1C11 (protein)
chain 1: LVQLKESGPGLLRPSETLFLTCSVSGGSIRDTSYFWGWVRQPPGKGLEWIGNVYYSGTTYYKPSLKSRVTISVDTSKNQFSLNLSSVTAADTAVYYCASLHTVAPSFWGQGTLVTVSS
chain 2: SYELTQPPSVSVSPGQTASITCSGNKLGDKFVCWFQQKPGQSPVVVIYQDTMRPSGIPERFSGSNSGNTATLTISGTQAMDEGDYYCQVWDSSTVVFGGGTKLTVL
inactive: [1]; [8] -0.129 | [1]; antigen blocked with: nothing -0.296 | [2]; [8] 0.304 | [2]; antigen blocked with: nothing -0.163 | [3] 0.0257 | [4]; [8] -0.805 | [4]; antigen blocked with: nothing 1.65 | [5]; [8] 0.0064 | [5]; antigen blocked with: nothing -0.266 | [6]; [8] 1 | [7]; [8] -0.0234
active: [6]; antigen blocked with: nothing 9.42 | [7]; antigen blocked with: nothing 5.2

B7: 100F4 (protein)
chain 1: QLQLQESGLGLVKPSETLSLTCTVSGDSVSSGSYYWSWLRQPPGKGLEWIGNMHGSGHTNYNPSLKSRVTITPDTSKNHFSLRLSSVTAADTAVYYCARALLTTVTTFEYWGQGTLVTVSS
chain 2: QSVLTQPPSVSGAPGQRVTISCTGGSSNIGAGYSVHWYQQLPGTAPKLLIYGSNSRPSGVPDRFSGSKSGTSASLAITGLRPEDEADYYCQSYDSSLSGSQVFGAGTRVTVL
active: [4]; [8] 16.9 | [4]; antigen blocked with: nothing 48
inactive: [1]; [8] 0.385 | [1]; antigen blocked with: nothing -0.331 | [2]; [8] -0.283 | [2]; antigen blocked with: nothing -0.554 | [3] -0.301 | [5]; [8] 0.197 | [5]; antigen blocked with: nothing 0.18 | [6]; [8] -0.29 | [6]; antigen blocked with: nothing -0.147 | [7]; [8] -0.494 | [7]; antigen blocked with: nothing 0.0364

B8: antibody 1F05 (protein)
chain 1: VQLVESGGGLVKPGGSLRLSCAGSGFIFRTYFMSWVRQAPGKGLEWVASINNNGLYIYYSESVEGRFTISRDNAENSVYLQMDSLRADDTALYYCSRGPWEDYDSNTYRTFDYWGQGTLVTVSS
chain 2: DIQMTQSPSTLSASLGARVTISCRASQNIAPWLAWYQQKPGEAPKLLIYKTSNLESGVPSRFSGSGSGTEFTLAISSLQPDDFATYYCQQYNSYPWTFGQGTKVEIK
inactive: [1]; [8] 6.1 | [1]; antigen blocked with: nothing 0.79 | [2]; [8] 8.79 | [2]; antigen blocked with: nothing 1.83 | [3] -0.119 | [4]; [8] 6.35 | [4]; antigen blocked with: nothing 4.28 | [5]; [8] 4.46 | [5]; antigen blocked with: nothing 2.17
active: [6]; [8] 21.4 | [6]; antigen blocked with: nothing 51.7 | [7]; [8] 65.9 | [7]; antigen blocked with: nothing 23.7

B9: C2-3-G03 (protein)
chain 1: VQLVESGGRLVQPGGSLRLSCAASGFIFSNYWMHWVRQAPGKGLVWVSRINSDGSSIVYADSVKGRFTVSRDNAKNTLYLQMNSLRAEDTAVYYCAREPYHPPQFDYWGQGTLVTVSS
chain 2: DIQMTQSPSSLSASVGDRVTITCRASQGIDTYLNWYRQQPGRPPKLLIYSAANLPSGVPSRFSGSGSGADFTLTISGLQPEDFATFYCQQSYRSPPTFGGGTKVEIK
inactive: [1]; [8] 1.51 | [1]; antigen blocked with: nothing -0.511 | [3] 0.0343 | [4]; [8] 1.14 | [4]; antigen blocked with: nothing 0.0218 | [5]; [8] 1.02 | [5]; antigen blocked with: nothing -0.582 | [6]; [8] -0.031 | [6]; antigen blocked with: nothing 0.193 | [7]; [8] 2.79 | [7]; antigen blocked with: nothing 0.913
active: [2]; [8] 172 | [2]; antigen blocked with: nothing 118

B10: S5V2-52-Ig (protein)
chain 1: SGPGLVKPSETLSLTCTVSGDSVNNKIYYWSWIRQTAGRGLEWIGSLSASGSSNYNPSLKSRVTILLHTSENQFSLKLTSVTAADTAVFYCARGGIEDLFLGTSNQRIWYFDVWGRGTQVTVSS
chain 2: SASVGDRVTITCRASQSIGDSLNWYQQKSGRAPNLLMYAASNLQSGVPSRFSGSGSGTDFTLTISSLQPEDFAIYYCQHQVSFGRGTKLEI
inactive: [1]; [8] -0.409 | [1]; antigen blocked with: nothing -0.369 | [2]; [8] 0.332 | [2]; antigen blocked with: nothing 0.133 | [3] -0.218 | [4]; [8] -0.0964 | [4]; antigen blocked with: nothing -0.153 | [5]; [8] 2.31 | [5]; antigen blocked with: nothing -0.344 | [6]; [8] 1.05 | [6]; antigen blocked with: nothing 0.171 | [7]; [8] 0.374 | [7]; antigen blocked with: nothing -0.335

B11: R95-2F07 (protein)
chain 1: EVQLVESGGGLVQPGRSLRLSCAASGFSFDDYAMHWVRQTPGKGLEWVSGISWNSGSIGYADSVKGRFTISRDNAKNSLYLQMNSLRAEDTALYYCTKDMNRGCDSINCYNYYYYYYGMDVWGQGTTVTVSS
chain 2: QSVLTQPPSVSGAPGQRVTISCTGSSSNIGAGYDVHWYQQLPGTAPKLLIYGNTNRPSGVPDRFSGSQSGTSASLAITGLQAEDEADYYCQSYDSSLSGSLFGGGTKLTV
inactive: [1]; [8] 0.936 | [1]; antigen blocked with: nothing -0.588 | [2]; [8] -0.0921 | [2]; antigen blocked with: nothing -0.164 | [3] -0.154 | [4]; [8] -0.472 | [4]; antigen blocked with: nothing 0.299 | [5]; [8] -0.535 | [5]; antigen blocked with: nothing -0.672 | [7]; [8] 0.288 | [7]; antigen blocked with: nothing -0.367
active: [6]; [8] 21.1 | [6]; antigen blocked with: nothing 71.1

B12: AG12-3D05 (protein)
chain 1: VQLVESGAEVKKPGESLRLSCQASGYNFTDSWISWVRQVPGKGLEWMGRIDPEDSYTNYSPSFQGRVTISADTSITTAYVQWRSLRPSDTAIYFCGRYSVGRKADYWGQGTLVTVSS
chain 2: DIVMTQSPLSQPVTLGQPASISCRSSQSLVYTDGNIYLNWFQQRPGQAPRRLIYKVFNRDSGVPDRFSGSGSGTDFTLKISRVEAEDVGVYYCMQGTHWPYTFGQGTKVEIK
inactive: [1]; [8] -0.149 | [1]; antigen blocked with: nothing 0.987 | [2]; [8] 0.177 | [2]; antigen blocked with: nothing 0.841 | [3] 0.938 | [4]; [8] 0.385 | [4]; antigen blocked with: nothing 0.213 | [5]; [8] -0.0357 | [5]; antigen blocked with: nothing 0.915 | [6]; [8] 1.74 | [6]; antigen blocked with: nothing 0.105 | [7]; [8] 0.228 | [7]; antigen blocked with: nothing -0.164

B13: K77-1C10 (protein)
chain 1: EVQLVESGGGPVKPGGSLRLSCVGSGFTFSYFSMNWVRQAPGKGLEWVSSISSASNFIEYAESVRGRFTVSRDNAKNAVYLQMDNLRADDTAVYYCAREGPGEIVVVTCYDHWGQGTLVSVSS
chain 2: EIVMTQSPATLSVSPGERATLSCRASQSVKNNLAWYQQKPGQSPRLLIHDASARAAGVPARFSGSGSGTEFTLTISSLQSEDFAVYYCQHYNNRPPITFGPGTRVDVK
inactive: [1]; [8] 2.88 | [2]; [8] 1.96 | [4]; [8] 0.53 | [5]; [8] 0.523 | [6]; [8] 0.304 | [7]; [8] 2
